# Laboratory results published in PubChem BioAssay AID651820 (National Center for Advancing Translational Sciences (NCATS), 2012).
# About 12,000 (3.5%) of roughly 340,000 compounds were called active. The shares of active, inactive and inconclusive entries below differ from those in the screen. Calls come from the whole dose curve; as a rule, active = well fitted inhibition curve with a large enough effect; inconclusive = small, poorly fitted or top-dose-only effect, or another doubt; inactive = no such curve, though single readings can be large or run the other way. Potencies of inconclusive entries are left out as doubtful fits.
# Assay: qHTS Assay for Inhibitors of Hepatitis C Virus (HCV)
# Conditions: Huh7.5.1 HCVcc-Cre (HCVcc is cell-culture hepatitis C virus) infection, luciferase reporter, 44 h; series mostly up to 41.8 µM
# Procedure, shortened: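 A cell-based infection assay in which seeded cells (1,000 per well) receive test compound after 4 h, are inoculated with HCVcc-Cre at approximately 0.5 moi, and are incubated 44 h before luminescence detection.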
# Potency is the fitted concentration of half-maximal effect; tags give direction and shape of the fitted curve.
row,SMILES,Potency
1,COC(=O)c1sccc1NC(=O)c1ccc(C)cc1,"inconclusive [inhibitor, partial curve]"
2,CC(C)(C)C(=O)NC1=NCCS1,inactive
3,Cc1cc(C)c(S(=O)(=O)N2CCCCCC2)cc1Br,inactive
4,O=[N+]([O-])c1ccccc1C=NN1CCCCCC1,inactive
5,CC(=O)N1CCC(=NNc2nc3ccccc3s2)CC1,inactive
6,CSc1nccc(-c2c(-c3ccc(Cl)cc3)noc2C)n1,"inconclusive [inhibitor, single point]"
7,COc1cc(O)c(CC=C(C)C)c(O)c1C(=O)CCc1ccc(O)cc1,active: 0.708 µM
8,CCN(CC)c1cc(C)c2cc(NC(=O)c3cccs3)ccc2n1,"inconclusive [inhibitor, full curve, poor fit]"
9,Cc1cc(C)cc(NS(=O)(=O)c2ccc(NC(=S)NC(=O)c3ccc(Br)o3)cc2)c1,"inconclusive [inhibitor, partial curve]"
10,COC(=O)c1ccccc1NC(=O)COC(=O)/C=C/c1ccco1,inactive
11,COc1ccccc1OCC(=O)N(Cc1nc(-c2ccccc2)no1)C1CCCCC1,active: 11.2 µM
12,COc1ccc([C@H]2/C=C\CN(S(=O)(=O)/C=C/c3ccccc3)[C@@H](C)C(=O)N2Cc2ccc(F)cc2)cc1,"inconclusive [inhibitor, single point]"
13,Cc1ccc(-c2nc3ccccc3o2)cc1NC(=S)NC(=O)c1cccs1,"inconclusive [inhibitor, partial curve]"
14,COc1ccc(-n2nc3cc(C)c(N)c(Br)c3n2)cc1,"inconclusive [inhibitor, single point]"
15,CC[C@]12c3[nH]c4cc(CCC(=O)N(C)C)ccc4c3CCN1C(=O)[C@@H](CC(=O)NCC13CC4CC(CC(C4)C1)C3)C[C@@H]2C(=O)N1CCN(C(=O)C2CC2)CC1,"inconclusive [inhibitor, single point]"
16,COc1ccccc1C/C(N)=N/OC(=O)c1ccc2c(c1)OCO2,"inconclusive [inhibitor, single point]"
17,COc1ccc(NS(=O)(=O)c2ccc3c(c2)oc(=O)n3C)c(OC)c1,inactive
18,Cc1ccc(S(=O)(=O)N2CCN(C(=O)c3nn(C(C)C)c(=O)c4ccccc34)CC2)cc1C,"inconclusive [inhibitor, single point]"
19,CCc1cccc(C)c1NC(=O)CO/N=C(\C)c1cc2ccccc2o1,"inconclusive [inhibitor, single point]"
20,COc1ccc(S(=O)(=O)N2CCCC2CNC(=O)C(=O)NCCc2ccccc2)cc1 (stereo not given),"inconclusive [inhibitor, single point]"
21,S=C(NN=C(c1ccccc1)c1ccccn1)N(Cc1ccccn1)Cc1ccccn1,active: 1.26 µM
22,CC(=O)N1CCc2cc(S(=O)(=O)NCc3ccc(C)cc3)ccc21,inactive
23,CCCCC(=O)N1CCN(c2nc3ccc(F)cc3s2)CC1,"inconclusive [inhibitor, partial curve]"

row,SMILES,Potency
1,COC(=O)[C@]1(C)N[C@H](CN(C)C(=O)c2ccc(F)cc2)[C@@H]2C(=O)N(C)C(=O)[C@@H]21,"inconclusive [inhibitor, full curve]"
2,O=C(CC1Oc2ccccc2NC1=O)NC1CCCC1 (stereo not given),inactive
3,COc1cc(OC)c2cc(C(=O)N/N=C/c3ccccc3O)[nH]c2c1,active: 8.91 µM
4,Cc1ccc2[nH]c3c(N4CCCCCC4)ncnc3c2c1,active: 3.16 µM
5,CC(C)Cn1c(N)c(C(=O)COC(=O)CN2C(=O)C3CC=CCC3C2=O)c(=O)n(C)c1=O (stereo not given),"inconclusive [inhibitor, single point]"
6,Nc1c(Cl)cc(-c2csc(N3CCCC3c3nc4cc(Cl)c(Cl)cc4n3CCOCCO)n2)cc1Cl (stereo not given),"inconclusive [inhibitor, full curve]"
7,COc1cc2c3c(c1OC)-c1cc4c(cc1CC3(C#N)N(C(=O)c1ccccc1)CC2)OCO4 (stereo not given),"inconclusive [inhibitor, single point]"
8,O=C1CC(c2ccccc2)Cc2nc(NCc3ccco3)ncc21 (stereo not given),"inconclusive [inhibitor, single point]"
9,CC(C)Cn1c(=O)c2c(nc3n2CCCN3CCc2ccccc2)n(C)c1=O,active: 10 µM
10,O=C1N(Cc2cccc(Cl)c2)C[C@@H]2C[C@@H](c3ccsc3)N3CCC[C@@]123,inactive
11,CC(C)(C)c1cccc(Cn2nnc3ccccc32)c1O,"inconclusive [inhibitor, partial curve]"
12,CCOC(=O)C1=C(C)NC(=S)N(C(C)=O)C1c1ccc(Cl)cc1 (stereo not given),"inconclusive [inhibitor, partial curve, poor fit]"
13,O=C(/C=C/c1ccc(F)cc1)Nc1ccc(S(=O)(=O)N2CCOCC2)cc1,"inconclusive [inhibitor, single point]"
14,Cc1c(C(=O)OCC(=O)N(C)CC(=O)Nc2ccc(F)cc2)oc2ccccc12,"inconclusive [inhibitor, single point]"
15,c1ccc(-n2ncc3c(NCc4cccs4)ncnc32)cc1,"inconclusive [inhibitor, partial curve, poor fit]"
16,COc1ccc2c(Cl)c(-c3nnc(SCC(=O)c4ccccc4)n3C)sc2c1,active: 11.2 µM
17,COc1cc(NC(=O)c2cccs2)ccc1NC(=O)c1ccccc1Cl,"inconclusive [inhibitor, partial curve]"
18,COc1ccc(CCNC(=S)c2ccccc2)cc1OC,active: 8.91 µM
19,COc1ccccc1N(C)S(=O)(=O)c1ccc(C(=O)NCC(c2ccco2)N2CCCCC2)cc1 (stereo not given),active: 22.4 µM
20,COc1ccc(N(CC(O)Cn2c(C)nc3ccccc32)S(=O)(=O)c2ccccc2)cc1 (stereo not given),inactive
21,Cc1ccc(C2CC(=O)N3CN(c4ccc(Br)cc4)CSC3=C2C#N)o1 (stereo not given),inactive
22,Cc1ccc(S(=O)(=O)N(C)C[C@H]2Oc3c(NC(=O)Nc4cccc5ccccc45)cccc3C(=O)N([C@@H](C)CO)C[C@@H]2C)cc1,"inconclusive [inhibitor, single point]"
